# Test results reported in paper PMC4336329 (PLoS ONE, 2015).
# Screen size: about 310,000 compounds; about 14,000 (4.5%) showed an effect of 50% or more. The effect is printed as a negative number. This is one part of the list.
# Target: human ether-à-go-go-related gene (hERG) potassium channel (human, UniProt Q12809)
# Test: primary screen, population patch clamp on CHO cells stably expressing hERG
# 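Note: peak tail current of the secondary pulse compared with the same well before compound.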
# Chain of human ether-à-go-go-related gene (hERG) potassium channel (Q12809 whole entry, looked up): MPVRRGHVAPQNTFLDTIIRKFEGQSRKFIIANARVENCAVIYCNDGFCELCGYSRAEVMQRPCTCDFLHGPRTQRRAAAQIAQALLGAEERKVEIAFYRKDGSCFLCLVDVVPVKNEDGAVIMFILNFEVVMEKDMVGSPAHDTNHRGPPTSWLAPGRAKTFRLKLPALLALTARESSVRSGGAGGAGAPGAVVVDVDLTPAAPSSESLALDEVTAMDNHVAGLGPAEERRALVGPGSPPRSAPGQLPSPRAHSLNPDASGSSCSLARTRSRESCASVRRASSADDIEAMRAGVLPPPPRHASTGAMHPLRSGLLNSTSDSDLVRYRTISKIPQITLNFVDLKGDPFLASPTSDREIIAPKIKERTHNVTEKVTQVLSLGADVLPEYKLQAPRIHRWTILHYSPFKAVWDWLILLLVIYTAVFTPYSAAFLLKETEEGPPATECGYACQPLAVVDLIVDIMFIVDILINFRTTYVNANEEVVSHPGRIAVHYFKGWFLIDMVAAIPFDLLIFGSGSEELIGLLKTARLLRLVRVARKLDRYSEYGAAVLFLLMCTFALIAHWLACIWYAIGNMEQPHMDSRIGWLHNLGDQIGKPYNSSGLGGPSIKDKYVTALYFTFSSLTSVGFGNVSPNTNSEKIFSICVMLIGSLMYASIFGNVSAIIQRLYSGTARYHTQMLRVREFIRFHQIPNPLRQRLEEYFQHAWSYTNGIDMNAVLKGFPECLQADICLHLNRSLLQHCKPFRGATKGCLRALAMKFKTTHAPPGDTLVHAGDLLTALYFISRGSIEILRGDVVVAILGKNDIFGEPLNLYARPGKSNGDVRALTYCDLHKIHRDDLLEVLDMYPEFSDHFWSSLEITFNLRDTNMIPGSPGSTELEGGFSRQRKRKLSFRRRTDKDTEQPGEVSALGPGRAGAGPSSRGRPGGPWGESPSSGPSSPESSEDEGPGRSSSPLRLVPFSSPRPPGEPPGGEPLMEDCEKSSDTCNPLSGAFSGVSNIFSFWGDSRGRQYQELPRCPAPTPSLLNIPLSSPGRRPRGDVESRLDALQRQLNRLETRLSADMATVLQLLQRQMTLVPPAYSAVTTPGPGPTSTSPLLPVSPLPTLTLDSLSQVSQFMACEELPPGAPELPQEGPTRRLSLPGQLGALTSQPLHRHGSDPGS
row,Compound,"hERG current change (%, negative = inhibition) at 10uM"
1,CCOC(=O)c1c(C)n(C)c2ccc(OC)c(NC(=O)CN3CCCCC3)c12,-7.45%
2,O=C1c2ccccc2C(=O)N1c1cc([N+](=O)[O-])ccn1,14%
3,Cc1ccc2c(c1)cc(CN(Cc1ccc3c(c1)OCO3)S(=O)(=O)c1ccccc1)c1nnnn12,28.5%
4,CC1Cc2cc(/C=C3/SC(N4CCC(C(N)=O)CC4)=NC3=O)ccc2O1 (stereo not drawn),-5.54%
5,Cc1ccc(CNC(=O)CCNS(=O)(=O)c2ccc(Br)s2)cc1,0.301%
6,O=c1nc2c(-c3cccc(Br)c3)n[nH]n2c2ccccc12,-4.4%
7,Cn1cnc2nc3n(c2c1=O)CCC3,6.85%
8,CC(=O)c1c(N2CCN(C(=O)c3ccco3)CC2)nc(=S)n(-c2ccccc2)c1C,-1.95%
9,COC(=O)c1ccc(OC(=O)c2cccnc2)cc1,27.3%
10,CCCCNC(=O)[C@@H]1CC=C[C@@H]2CCN(C3CC3)C(=O)[C@@H]21,13.8%
11,CC1CC(C)CN(C(=O)Nc2ccc(Br)cc2)C1 (stereo not drawn),6.89%
12,COc1ccc(C(=O)OCC(=O)NCc2ccccc2)c(OC)c1OC,2.68%
13,CSc1ccc(CN2CCC(n3nccc3NC(=O)c3ccccc3C)CC2)cc1,-75%
14,O=C(Nc1cccc(F)c1)Nc1c[nH]c(=O)[nH]c1=O,14.8%
15,COc1ccc(S(=O)(=O)N(c2onc(C)c2Cl)S(=O)(=O)c2ccc(OC)c(OC)c2)cc1OC,10.3%
16,COc1cccc(C(=O)NC2CC3CCCC(C2)N3CC(=O)Nc2ccccc2C(F)(F)F)c1 (stereo not drawn),15.8%
17,CN1CCN(S(=O)(=O)c2cccc(C(=O)N3CCc4ccccc43)c2)CC1,-27.1%
18,O=C(CC1C(=O)NCCN1Cc1ccc(F)cc1)NCCN1CCCc2ccccc21 (stereo not drawn),-66.1%
19,Nc1ccc(C#Cc2c(-c3ccsc3)oc3ccc(N4CCOCC4)cc23)cc1,5.98%
20,Cc1c(C(=O)N2CC[C@@H](N3CCC(O)CC3)[C@H](O)C2)[nH]c2ccc(Cl)cc12,-14.9%
21,O=C(NCc1ccccc1OC(F)(F)F)C1CCC(=O)N(CCc2ccccn2)C1 (stereo not drawn),13.8%
22,O=S(=O)(NCCCN1CCN(c2ccccc2F)CC1)c1cccc2cccnc12,-37.6%

row,Compound,"hERG current change (%, negative = inhibition) at 10uM"
1,CCCc1[nH]n(-c2nc3ccccc3s2)c(=O)c1C=NCCCN(CC)CC,-75.9%
2,CCC(Oc1ccccc1)C(=O)NC1CCCCCC1 (stereo not drawn),-0.406%
3,Cc1ccc(C)c(NC(=O)Cn2nnc(C(=O)NCc3cccs3)c2N)c1,10.4%
4,COc1ccc2c(=O)cc(-c3ccccc3)n(C)c2c1,-26.3%
5,C=CCn1c(C)cc(C2=NNC(=Nc3ccc(C)cc3)SC2)c1C,8.86%
6,C=CCn1c(SCC(=O)N2CCCCC2)nc(O)cc1=O,3.13%
7,COC(=O)c1cccc(Oc2nc3c(c(=O)n(C)c(=O)n3C)n2C(C)C)c1,10.3%
8,COc1ccccc1OCCNC(=O)C(CCSC)NC(=O)c1ccccc1Cl (stereo not drawn),-2.15%
9,COc1ccccc1-n1c(CNC(=O)c2ccco2)nnc1SCC(=O)Nc1ccc(F)cc1,-16.4%
10,O=S(=O)(c1ccc(Br)s1)N1CCN(CCc2ccccc2)CC1,26%
11,CCc1nnc(NC(=O)C2CC(=O)N(C3CCCCC3)C2)s1 (stereo not drawn),19.8%
12,COCCCn1cnnc1SCc1nc2sc(C(C)=O)c(C)c2c(=O)[nH]1,-17%
13,COc1ccc(CCNS(=O)(=O)c2ccc3c(c2)NC(=O)CCS3)cc1OC,15.3%
14,Fc1ccc(/C=N/n2c(COc3ccccc3)n[nH]c2=S)cc1,26.1%
15,CCCn1c(=S)[nH]c2cc(C(=O)N3CCN(c4ccccc4OC)CC3)ccc2c1=O,2.53%
16,CC(=O)Nc1ccc(NC(=O)Cn2ccc([N+](=O)[O-])n2)cc1,3.89%
17,O=C(CCN1CCOCC1)N1CCCC(Nc2cccc(F)c2)C1 (stereo not drawn),-1.16%
18,O=C(NCc1ccco1)C1CCCCC1,-2.94%
19,Cc1noc(C)c1COC(=O)CCc1nc2ccccc2s1,3.17%
20,COc1ccccc1C(=O)n1nc(-c2ccco2)nc1SC,10.2%
21,CN(CCOc1ccccc1)C(=O)C1CCC(=O)N(CCCN2CCCC2=O)C1 (stereo not drawn),27.5%
22,CC(C)Cc1ccc(S(=O)(=O)Nc2cccnc2)cc1,9.66%

row,Compound,"hERG current change (%, negative = inhibition) at 10uM"
1,Cc1ccc(C(=O)N/C(=C\c2ccc3c(c2)OCO3)C(=O)Nc2ccc(C(=O)O)cc2)cc1,17.9%
2,Cc1ccc(C2CC(=O)NC(SCC(N)=O)=C2C#N)s1 (stereo not drawn),-5.34%
3,O=C1COc2ccc(C(=O)COC(=O)/C=C/c3ccc(Br)o3)cc2N1,-8.26%
4,CC(C)c1ccc(Nc2ccc(C(=O)O)cc2[N+](=O)[O-])cc1,25.4%
5,Cc1cccc(C)c1-n1c(C)nn(Cc2ccc([N+](=O)[O-])cc2)c1=O,-30.8%
6,Nc1nc(Br)c2c(F)cccc2c1-c1ccc(Cl)cc1,-22.6%
7,COC(=O)c1ccn(CSc2c(F)c(F)cc(F)c2F)n1,15.3%
8,Cn1cc(S(=O)(=O)N2CCCC2)cc1C(=O)N1CCN(c2ccccc2)CC1,-35.8%
9,CCN1CCN(CCC(=O)Nc2ccc(Br)cc2)CC1.Cl,-24.4%
10,Cc1ccc(C)c(OCCC(=O)NNC(=O)Cn2nc(C)cc2C)c1,21.8%
11,Cc1cccc(C(=O)N2CCc3cc(-c4nc(NC(=O)CN5CCCC5)sc4C)ccc32)c1,-0.886%
12,COc1cccc(C(=O)N2CCN(Cc3ccc(OC)cc3OC)CC2)c1.O=C(O)C(=O)O,-38.9%
13,CCc1nnc(NC(=O)c2ccc(OC)cc2OC)s1,-1.35%
14,CN(C(=O)COC(=O)c1cc(Br)c(Br)s1)C1CCS(=O)(=O)C1 (stereo not drawn),-39.1%
15,COC(=O)c1ccc(COc2cc([N+](=O)[O-])cc3cccnc23)cc1,16.3%
16,COC(=O)C1=C[C@@H](C(=O)OC)[C@@H]2C3=C(C(=O)[C@]2(CC(C)C)NC(=O)c2ccccc2)[C@H](C)n2c(=O)n(-c4ccccc4)c(=O)n2[C@@H]3C1,-8.87%
17,COc1ccc(C(CC(=O)Nc2cc(C)ccn2)N2Cc3ccccc3C2=O)cc1 (stereo not drawn),-9.05%
18,CCN(c1ccc(NC(=O)c2ccc(N3CCCC3=O)cc2)cc1)C(C)C,5.87%
19,N#Cc1ccccc1OCC(=O)NCC1(N2CCCCC2)CCCCC1,-29.4%
20,Cc1cc(C)nc(NS(=O)(=O)c2cccs2)c1,3.36%
21,O=C(NCc1ccc(F)cc1)c1cccc2c1C(=O)N(Cc1cccnc1)C2,-61.8%
22,CC(C)(C)c1ccc(C(=O)N2CCCN(c3ccc([N+](=O)[O-])cn3)CC2)cc1,-72.3%

row,Compound,"hERG current change (%, negative = inhibition) at 10uM"
1,CC(C)Oc1ccc(OCCSc2nc3ccccc3n2CC(=O)O)cc1,9.73%
2,O=C(C[n+]1cc(-c2ccc(Cl)c(Cl)c2)n2c1CCC2)c1cccs1.[Br-],-3.09%
3,COC(=O)CNC(=O)CN1c2cccc3cccc(c23)S1(=O)=O,-13.9%
4,COCCCn1c(SCC(=O)NC2CCCC2)nnc1-c1cccs1,-3.3%
5,O=C(c1ccoc1)N1CCC(CO)(CCc2ccccc2)CC1,-28.7%
6,Cc1noc(/C=C/c2cccs2)c1S(=O)(=O)N1CCC(C(=O)NCCCN2CCC(C)CC2)CC1,-83.7%
7,Cc1[nH]nc(SCC(=O)NCCc2ccccc2)c1[N+](=O)[O-],15.9%
8,COc1ccc2c(c1)cc(C(=O)N[C@@H](CCSC)C(=O)N1CCC(C(=O)O)CC1)n2C,21.1%
9,Cc1c(CCC(=O)NCCC(=O)O)c(=O)oc2c(C)c3oc4c(c3cc12)CCCC4,10.7%
10,CC(C)c1ccc(NC(=O)CN2C(=O)COc3ccc(S(=O)(=O)N4CCOCC4)cc32)cc1,16.9%
11,COc1ccc(CNc2nc3ccccc3n2C)c(O)c1,1.38%
12,Oc1ccc(C=NCC2COc3ccccc3O2)cc1 (stereo not drawn),-22%
13,O=C(NNc1ccnc2cc(Cl)ccc12)C1CCCCC1,16.1%
14,Cc1ccccc1Oc1nc2ccccc2n2cnnc12,7.65%
15,O=C(NCc1ccco1)NC(=O)c1csc([N+](=O)[O-])c1,11.4%
16,CC(C)CC(=O)Nc1ccnn1C1CCN(C(=O)c2ccc(F)cc2Cl)CC1,3.38%
17,O=[N+]([O-])c1ccc(NC(=S)N2CCN(c3ccccc3)CC2)cc1,-11.4%
18,Cc1ccc(F)cc1NC(=O)CN1CCN(Cc2ccccc2)CC1,-63.2%
19,CCC(=NCC1CCCO1)c1c(O)n(-c2ccc(OC)cc2)c(=O)[nH]c1=O (stereo not drawn),18.4%
20,Cc1ccc(O)c(CNCCNCc2cc(C)ccc2O)c1,-11.9%
21,CC1CCN(S(=O)(=O)c2ccc(Br)s2)CC1,-17.3%
